# Source: PubChem BioAssay (NCATS)
# “And” between values parts separate entries of the source, which are not always exact repeats. Equal entries are not always repeated. Inconclusive results, whose numbers are uncertain, are shown with a selection of clear calls. For some of these results: Potencies beside an inconclusive call are fits to weak or partial responses and may not hold up. The source made the active and inactive calls. Unless noted, calls follow the shape of the dose curve; as a rule, active = well fitted curve in the direction sought with a large enough effect in the repeat runs; inconclusive = weak or mixed curves; inactive = no such curve, though single readings can be large; an effect the other way counts as inactive or inconclusive.
# Columns and labels:
# [1] = biological target: Cytochrome P450 2D6 (Homo sapiens) (UniProt P10635); assay: Cytochrome P450 family 2 subfamily D member 6 (CYP2D6) small molecule antagonists: luciferase biochemical (cell-free) qHTS assay (AID 1645840); details: P450-Glo CYP2D6 enzyme, luciferin luminescence, 1 h; series mostly up to 57.4 µM; also: nearly all actives have a fitted effect of over 55% in size; also: potency is read from the fitted curve at half-maximal effect
# UniProt P10635, sequence (P10635 whole entry, looked up): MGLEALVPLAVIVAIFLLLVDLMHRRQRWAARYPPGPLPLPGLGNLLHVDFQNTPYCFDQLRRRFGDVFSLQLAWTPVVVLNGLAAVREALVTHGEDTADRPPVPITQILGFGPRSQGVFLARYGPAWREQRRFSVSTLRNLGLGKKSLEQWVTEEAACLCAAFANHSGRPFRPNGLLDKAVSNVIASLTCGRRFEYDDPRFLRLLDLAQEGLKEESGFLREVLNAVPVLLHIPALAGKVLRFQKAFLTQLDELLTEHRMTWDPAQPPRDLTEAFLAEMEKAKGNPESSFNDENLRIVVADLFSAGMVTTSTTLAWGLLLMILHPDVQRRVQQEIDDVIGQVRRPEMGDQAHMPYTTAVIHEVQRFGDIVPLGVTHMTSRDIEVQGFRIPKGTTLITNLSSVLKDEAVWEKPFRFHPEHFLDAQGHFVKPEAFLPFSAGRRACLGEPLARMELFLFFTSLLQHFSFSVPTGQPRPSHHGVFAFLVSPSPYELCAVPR
# In short: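 P450-Glo luminescent screen: recombinant CYP2D6 enzyme–proluciferin substrate mix preincubated with compound 10 min at room temperature, then NADPH regeneration added for 1 h at room temperature. Detection reagent added for 20 min; luciferin light read as relative luminescence units.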
# [2] = biological target: Rap guanine nucleotide exchange factor 3 (Homo sapiens) (UniProt O95398); assay: Confirmatory qHTS for antagonist of cAMP-regulated guanine nucleotide exchange factor 3 (EPAC1) (AID 1645880; active = well fitted curve in the direction sought with a large enough effect; inconclusive = small, poorly fitted or top-dose-only effect, or another doubt; inactive = no such curve, though single readings can be large; an effect the other way counts as inactive or inconclusive; also: potency is read from the fitted curve at half-maximal effect; nearly all actives have a fitted effect of over 55% in size); details: EPAC1 Rap1B-BODIPY-GDP exchange, fluorescence; activity, negative = inhibition: at 115 µM (top of the series)
# UniProt O95398, sequence (O95398 whole entry, looked up): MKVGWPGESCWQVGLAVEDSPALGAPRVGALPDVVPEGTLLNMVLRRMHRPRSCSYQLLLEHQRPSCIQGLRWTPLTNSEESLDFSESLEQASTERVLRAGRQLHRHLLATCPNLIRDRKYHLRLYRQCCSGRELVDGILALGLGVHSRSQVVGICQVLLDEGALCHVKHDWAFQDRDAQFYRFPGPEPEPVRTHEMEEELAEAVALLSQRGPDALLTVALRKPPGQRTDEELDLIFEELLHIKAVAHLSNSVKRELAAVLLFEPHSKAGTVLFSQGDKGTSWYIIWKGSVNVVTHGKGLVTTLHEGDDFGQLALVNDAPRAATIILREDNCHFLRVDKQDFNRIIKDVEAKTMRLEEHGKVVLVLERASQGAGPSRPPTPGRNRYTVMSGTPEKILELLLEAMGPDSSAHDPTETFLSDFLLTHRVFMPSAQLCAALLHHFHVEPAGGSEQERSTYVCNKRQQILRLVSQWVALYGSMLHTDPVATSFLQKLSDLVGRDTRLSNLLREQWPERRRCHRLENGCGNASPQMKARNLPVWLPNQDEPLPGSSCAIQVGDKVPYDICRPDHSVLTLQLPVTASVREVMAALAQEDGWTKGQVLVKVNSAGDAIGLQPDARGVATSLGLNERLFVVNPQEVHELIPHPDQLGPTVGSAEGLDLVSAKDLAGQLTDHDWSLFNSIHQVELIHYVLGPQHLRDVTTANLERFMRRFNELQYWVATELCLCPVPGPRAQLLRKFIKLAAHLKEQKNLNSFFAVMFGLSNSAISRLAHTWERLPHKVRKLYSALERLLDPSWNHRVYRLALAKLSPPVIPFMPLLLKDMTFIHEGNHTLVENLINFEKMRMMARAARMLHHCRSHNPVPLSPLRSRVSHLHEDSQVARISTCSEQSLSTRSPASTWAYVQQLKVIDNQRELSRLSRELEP
# In short: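 Nucleotide exchange uses 100 nM EPAC1, 250 nM RAP1B-BODIPY-GDP and 50 uM GDP, with compounds in a concentration-titration series. After 5 min at room temperature, fluorescence (480 nm ex/540 nm em) is read every 5 min for 30 min. Data are normalized to control ATA and DMSO.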
# [3] = biological target: Rap guanine nucleotide exchange factor 4 (Homo sapiens) (UniProt Q8WZA2); assay: Confirmatory qHTS for antagonist of cAMP-regulated guanine nucleotide exchange factor 4 (EPAC2) (AID 1645885; active = well fitted curve in the direction sought with a large enough effect; inconclusive = small, poorly fitted or top-dose-only effect, or another doubt; inactive = no such curve, though single readings can be large; an effect the other way counts as inactive or inconclusive; also: nearly all actives have a fitted effect of over 25% in size; also: potency is read from the fitted curve at half-maximal effect); details: EPAC2 Rap1B-BODIPY-GDP exchange fluorescence, biochemical; activity change, negative = inhibition: at 12.7 µM (top of the series) unless noted; series mostly up to 114 µM
# UniProt Q8WZA2, sequence (Q8WZA2 whole entry, looked up): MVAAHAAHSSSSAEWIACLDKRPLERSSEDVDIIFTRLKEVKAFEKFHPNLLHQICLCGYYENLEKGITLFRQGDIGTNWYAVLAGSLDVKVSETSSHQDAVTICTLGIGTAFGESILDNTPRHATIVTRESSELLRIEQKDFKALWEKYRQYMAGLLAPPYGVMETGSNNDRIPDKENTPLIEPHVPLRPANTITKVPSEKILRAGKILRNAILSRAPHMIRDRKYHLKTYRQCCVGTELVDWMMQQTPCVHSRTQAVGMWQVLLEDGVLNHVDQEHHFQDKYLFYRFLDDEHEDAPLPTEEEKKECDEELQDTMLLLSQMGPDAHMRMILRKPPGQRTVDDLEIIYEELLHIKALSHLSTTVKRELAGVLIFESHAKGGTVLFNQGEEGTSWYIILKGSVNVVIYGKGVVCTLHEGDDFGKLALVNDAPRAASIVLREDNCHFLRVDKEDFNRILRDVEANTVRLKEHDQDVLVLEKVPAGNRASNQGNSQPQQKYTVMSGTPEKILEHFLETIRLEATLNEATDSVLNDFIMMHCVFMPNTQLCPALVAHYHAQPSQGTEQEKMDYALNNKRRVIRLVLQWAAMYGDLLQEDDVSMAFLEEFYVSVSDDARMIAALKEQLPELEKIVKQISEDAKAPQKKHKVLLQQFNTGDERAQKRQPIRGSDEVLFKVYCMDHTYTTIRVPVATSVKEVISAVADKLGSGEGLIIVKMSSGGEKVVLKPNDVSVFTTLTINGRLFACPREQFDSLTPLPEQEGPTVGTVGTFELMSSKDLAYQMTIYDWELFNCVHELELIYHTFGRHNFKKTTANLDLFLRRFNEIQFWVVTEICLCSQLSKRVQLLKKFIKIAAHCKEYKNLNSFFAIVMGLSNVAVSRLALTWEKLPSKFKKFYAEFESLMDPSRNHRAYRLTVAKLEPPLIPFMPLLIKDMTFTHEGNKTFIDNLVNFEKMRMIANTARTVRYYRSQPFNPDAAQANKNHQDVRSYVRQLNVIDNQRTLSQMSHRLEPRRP
# [4] = biological target: Cytochrome P450 2C9 (Homo sapiens) (UniProt P11712); assay: Cytochrome P450 family 2 subfamily C member 9 (CYP2C9) small molecule antagonists: luciferase biochemical (cell-free) qHTS assay (AID 1645842); details: P450-Glo CYP2C9 enzyme assay, luciferin luminescence; series mostly up to 57.4 µM; also: nearly all actives have a fitted effect of over 55% in size; also: potency is read from the fitted curve at half-maximal effect
# UniProt P11712, sequence (P11712 whole entry, looked up): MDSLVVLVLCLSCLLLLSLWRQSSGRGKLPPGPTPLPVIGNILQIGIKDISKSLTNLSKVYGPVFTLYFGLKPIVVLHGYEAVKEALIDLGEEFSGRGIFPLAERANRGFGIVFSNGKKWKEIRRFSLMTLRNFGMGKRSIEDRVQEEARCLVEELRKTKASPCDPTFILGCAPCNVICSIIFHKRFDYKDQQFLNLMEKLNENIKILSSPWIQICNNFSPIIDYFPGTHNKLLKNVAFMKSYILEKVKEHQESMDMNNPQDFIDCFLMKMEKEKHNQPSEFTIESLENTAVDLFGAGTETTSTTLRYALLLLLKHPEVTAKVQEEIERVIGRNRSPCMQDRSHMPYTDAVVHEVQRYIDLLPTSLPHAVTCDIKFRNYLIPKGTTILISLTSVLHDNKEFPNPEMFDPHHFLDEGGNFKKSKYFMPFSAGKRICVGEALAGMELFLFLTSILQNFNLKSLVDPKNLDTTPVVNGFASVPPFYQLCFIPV
# In short: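 Luminescence, after 20 min with luciferin detection reagent, reflected CYP2C9 turnover during a 1 h NADPH-driven reaction at 37C. Enzyme-substrate mix contained 0.4% bovine serum albumin and was preincubated with compound 10 min at room temperature.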
# [5] = biological target: DNA polymerase iota (Homo sapiens) (UniProt Q9UNA4); assay: qHTS for Inhibitors of Polymerase Iota: Confirmatory Assay for Cherry-picked Compounds (AID 720496; active = well fitted curve in the direction sought with a large enough effect; inconclusive = small, poorly fitted or top-dose-only effect, or another doubt; inactive = no such curve, though single readings can be large; an effect the other way counts as inactive or inconclusive; also: potency is read from the fitted curve at half-maximal effect); details: Pol iota primer extension, TAMRA/BHQ fluorescence
# UniProt Q9UNA4, sequence (Q9UNA4 whole entry, looked up): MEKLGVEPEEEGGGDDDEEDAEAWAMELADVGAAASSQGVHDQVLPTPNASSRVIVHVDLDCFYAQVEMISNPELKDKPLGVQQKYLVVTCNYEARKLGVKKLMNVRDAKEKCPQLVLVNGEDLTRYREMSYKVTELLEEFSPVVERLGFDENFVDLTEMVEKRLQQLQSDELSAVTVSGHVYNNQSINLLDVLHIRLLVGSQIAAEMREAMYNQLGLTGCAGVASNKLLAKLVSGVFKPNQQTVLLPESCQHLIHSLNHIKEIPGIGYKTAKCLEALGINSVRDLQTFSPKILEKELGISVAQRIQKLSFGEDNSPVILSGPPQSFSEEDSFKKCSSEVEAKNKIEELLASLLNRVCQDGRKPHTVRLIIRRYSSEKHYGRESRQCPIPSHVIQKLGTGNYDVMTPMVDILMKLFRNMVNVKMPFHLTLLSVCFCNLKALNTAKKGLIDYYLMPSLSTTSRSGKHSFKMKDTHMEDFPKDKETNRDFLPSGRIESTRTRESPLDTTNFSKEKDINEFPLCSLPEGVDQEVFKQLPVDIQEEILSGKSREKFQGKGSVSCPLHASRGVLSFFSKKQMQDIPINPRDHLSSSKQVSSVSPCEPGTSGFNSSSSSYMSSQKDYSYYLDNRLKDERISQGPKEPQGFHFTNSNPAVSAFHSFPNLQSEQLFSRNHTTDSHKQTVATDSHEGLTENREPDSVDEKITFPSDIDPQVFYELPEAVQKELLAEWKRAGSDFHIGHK
# In short: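 Recombinant human Pol iota (10 nM) was preincubated with compound for 15 min at room temperature, then 50 nM final primer/template substrate was added; the substrate carried a TAMRA-labeled reporter strand and a BHQ-2-quenched template. Fluorescence was read at 0 and 10 min.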
# [6] = Primary qHTS for inhibitors of nuclear receptor binding SET domain protein 2 (NSD2) in an isogenic RCH-ACV NSD2 p.E1099K mutant (9B) (AID 1645876; active = well fitted curve in the direction sought with a large enough effect; inconclusive = small, poorly fitted or top-dose-only effect, or another doubt; inactive = no such curve, though single readings can be large; an effect the other way counts as inactive or inconclusive; also: nearly all actives have a fitted effect of over 70% in size; also: potency is read from the fitted curve at half-maximal effect); details: RCH-ACV (leukaemia line) NSD2 E1099K (9B) viability, CellTiter-Glo, 72 h; series mostly up to 44.9 µM
# [7] = biological target: Rap guanine nucleotide exchange factor 3 (Homo sapiens) (UniProt O95398); assay: Counterscreen qHTS for agonist of cAMP-regulated guanine nucleotide exchange factor 3 (EPAC1) (AID 1645889; active = well fitted curve in the direction sought with a large enough effect; inconclusive = small, poorly fitted or top-dose-only effect, or another doubt; inactive = no such curve, though single readings can be large; an effect the other way counts as inactive or inconclusive; also: potency is read from the fitted curve at half-maximal effect; nearly all actives have a fitted effect of over 40% in size); details: EPAC1 Rap1B-BODIPY-GDP exchange, fluorescence; series mostly up to 154 µM
# In short: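 Rap1B–BODIPY-GDP (250 nM) with 50 uM GDP; compounds pin-transferred to 9.74 nM–152 uM final (activator) or from 7.32 nM upwards (inhibitor). Fluorescence Ex/Em 480/540 nm read at 5 and 30 min, then after adding cAMP or buffer, at room temperature.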
# ATS95 = assay: qHTS profiling for inhibitors of Plasmodium falciparum proliferation (AID 504749; active = well fitted curve in the direction sought with a large enough effect; inconclusive = small, poorly fitted or top-dose-only effect, or another doubt; inactive = no such curve, though single readings can be large; an effect the other way counts as inactive or inconclusive; also: nearly all actives have a fitted effect of over 60% in size; also: potency is read from the fitted curve at half-maximal effect); details: P. falciparum in erythrocytes, SYBR Green DNA, 72 h; series mostly up to 28.7 µM
# In short: (§1)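 P. falciparum-infected erythrocytes (0.3% parasitemia, 2.5% hematocrit) incubated with compound 72 h at 37 C, 5% CO2. Parasite DNA detected by SYBR Green after lysis, overnight at room temperature; normalised to 0.29 uM artemisinin and DMSO.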
# CP217 = assay: as above; details: P. falciparum in erythrocytes, SYBR Green DNA, 72 h; series mostly up to 28.7 µM
# In short: as §1
# CP266 = assay: as above; details: P. falciparum in erythrocytes, SYBR Green DNA, 72 h; activity, negative = inhibition: at 28.7 µM (top of the series) unless noted
# In short: as §1
# CP335 = assay: as above; details: P. falciparum in erythrocytes, SYBR Green DNA, 72 h; series mostly up to 28.7 µM
# In short: as §1
# Dd2 = assay: as above; details: P. falciparum in erythrocytes, SYBR Green DNA, 72 h; series mostly up to 28.7 µM
# In short: as §1
# FAB9 = assay: as above; details: P. falciparum in erythrocytes, SYBR Green DNA, 72 h; series mostly up to 28.7 µM
# In short: as §1
# GB4 = assay: as above; details: P. falciparum in erythrocytes, SYBR Green DNA, 72 h; series mostly up to 28.7 µM
# In short: as §1
# [8] = biological target: Ubiquitin carboxyl-terminal hydrolase 1 (Homo sapiens) (UniProt O94782); assay: Inhibitors of USP1/UAF1: Pilot qHTS (AID 504865; active = well fitted curve in the direction sought with a large enough effect; inconclusive = small, poorly fitted or top-dose-only effect, or another doubt; inactive = no such curve, though single readings can be large; an effect the other way counts as inactive or inconclusive;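 also: rhodamine fluorescence freed from ubiquitin-rhodamine substrate followed over time; potency is read from the fitted curve at half-maximal effect; nearly all actives have a fitted effect of over 35% in size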); details: purified USP1/UAF1, Ub-rhodamine cleavage fluorescence; series mostly up to 54.9 µM
# UniProt O94782, sequence (O94782 whole entry, looked up): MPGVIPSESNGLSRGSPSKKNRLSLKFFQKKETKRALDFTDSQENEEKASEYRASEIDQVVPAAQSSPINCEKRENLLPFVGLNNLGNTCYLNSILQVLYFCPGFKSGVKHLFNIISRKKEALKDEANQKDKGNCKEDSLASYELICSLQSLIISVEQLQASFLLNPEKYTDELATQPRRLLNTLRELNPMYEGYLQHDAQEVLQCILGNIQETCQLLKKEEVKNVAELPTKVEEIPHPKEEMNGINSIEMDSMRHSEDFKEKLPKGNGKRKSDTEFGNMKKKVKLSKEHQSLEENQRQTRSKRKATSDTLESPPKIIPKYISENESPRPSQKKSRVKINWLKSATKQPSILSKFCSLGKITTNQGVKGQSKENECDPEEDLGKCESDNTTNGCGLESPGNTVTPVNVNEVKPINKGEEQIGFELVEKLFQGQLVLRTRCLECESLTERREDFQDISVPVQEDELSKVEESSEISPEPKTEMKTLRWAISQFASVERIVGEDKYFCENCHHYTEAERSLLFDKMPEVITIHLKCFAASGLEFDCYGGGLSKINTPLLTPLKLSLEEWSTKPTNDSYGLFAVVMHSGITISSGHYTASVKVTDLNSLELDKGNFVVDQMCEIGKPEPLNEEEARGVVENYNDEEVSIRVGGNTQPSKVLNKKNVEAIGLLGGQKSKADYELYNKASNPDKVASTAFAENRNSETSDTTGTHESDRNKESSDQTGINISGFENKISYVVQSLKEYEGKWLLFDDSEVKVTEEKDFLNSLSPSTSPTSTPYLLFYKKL
# In short: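 USP1/UAF1 complex (1nM) preincubated with compound 15 min at room temperature, then Ub-Rho substrate (150nM final) added. Fluorescence read kinetically at 480/540 nm, 6 reads every 60 seconds. Buffer: 50mM HEPES pH 7.8, 0.5mM EDTA, 0.1 mg/ml BSA, 1mM TCEP, 0.01% Tween-20.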
# [9] = biological target: DNA polymerase kappa (Homo sapiens) (UniProt Q9UBT6); assay: qHTS for Inhibitors of Polymerase Kappa: Confirmatory Assay for Cherry-picked Compounds (AID 720501; active = well fitted curve in the direction sought with a large enough effect; inconclusive = small, poorly fitted or top-dose-only effect, or another doubt; inactive = no such curve, though single readings can be large; an effect the other way counts as inactive or inconclusive; also: potency is read from the fitted curve at half-maximal effect); details: purified Pol-kappa, fluorescent strand-displacement substrate
# In short: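 10 nM human Pol-kappa was preincubated with compound 15 min at room temperature, then 50 nM (final) primer/template substrate with TAMRA-labeled reporter strand and BHQ-2-labeled template added. Fluorescence (Ex 525, Em 598 nm) read at 0 and 10 min.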
# [10] = Primary fluorescence-based thiol-reactive (MSTI) qHTS assay for identification of artifact compounds. (AID 1845221; active = well fitted curve in the direction sought with a large enough effect; inconclusive = small, poorly fitted or top-dose-only effect, or another doubt; inactive = no such curve, though single readings can be large; an effect the other way counts as inactive or inconclusive; also: potency is read from the fitted curve at half-maximal effect;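 also: thiol-reactive compounds lower the probe fluorescence signal; nearly all actives have a fitted effect of over 65% in size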); details: MSTI thiol-reactivity probe, 1 h; series mostly up to 53.8 µM
# In short: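 Curve-fitted percent inhibition (4-parameter Hill) derived from fluorescence, Ex 525/Em 598 nm, scaled with Acetyl-MSTI and MSTI; 1 h incubation at room temperature.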
# [11] = Primary redox qHTS assay for identification of artifact compounds. (AID 1845223; active = well fitted curve in the direction sought with a large enough effect; inconclusive = small, poorly fitted or top-dose-only effect, or another doubt; inactive = no such curve, though single readings can be large; an effect the other way counts as inactive or inconclusive); details: Amplex Red/HRP redox cycling with DTT, fluorescence; series mostly up to 53.8 µM
# In short: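 Amplex Red (25 uM) and HRP (250 mU/mL) in HBSS, with compounds for 15 min, then 250 uM DTT for 30 min, room temperature, dark. Fluorescence 525/598 nm read; normalized to DMSO and 10 uM DA3003; Hill fit.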
# [12] = biological target: Cytochrome P450 3A4 (Homo sapiens) (UniProt P08684); assay: qHTS Assay for Inhibitors and Substrates of Cytochrome P450 3A4 (AID 884; active = well fitted curve in the direction sought with a large enough effect; inconclusive = small, poorly fitted or top-dose-only effect, or another doubt; inactive = no such curve, though single readings can be large; an effect the other way counts as inactive or inconclusive; also: nearly all actives have a fitted effect of over 50% in size); details: recombinant CYP3A4, Luciferin-PPXE luminescence; activity change, negative = inhibition: at 57.1 µM (top of the series)
# UniProt P08684, sequence (P08684 whole entry, looked up): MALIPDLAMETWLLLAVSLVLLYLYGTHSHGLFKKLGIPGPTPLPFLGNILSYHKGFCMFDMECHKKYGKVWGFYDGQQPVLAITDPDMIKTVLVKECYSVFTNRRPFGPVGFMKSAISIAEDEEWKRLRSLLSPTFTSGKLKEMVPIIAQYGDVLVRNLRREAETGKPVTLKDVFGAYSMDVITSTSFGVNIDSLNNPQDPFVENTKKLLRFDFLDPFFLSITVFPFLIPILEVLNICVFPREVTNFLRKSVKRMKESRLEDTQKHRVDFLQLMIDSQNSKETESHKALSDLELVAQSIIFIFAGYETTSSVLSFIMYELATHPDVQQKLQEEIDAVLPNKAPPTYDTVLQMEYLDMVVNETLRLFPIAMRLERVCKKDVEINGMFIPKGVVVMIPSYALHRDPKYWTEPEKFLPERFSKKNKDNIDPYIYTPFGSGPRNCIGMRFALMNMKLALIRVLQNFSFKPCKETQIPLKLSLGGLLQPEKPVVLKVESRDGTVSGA
# In short: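 20 nM human CYP3A4 with 25 uM Luciferin-PPXE (at KM) in 200 mM KPO4, preincubated 10 min with compound; NADPH regeneration started a 60 min RT reaction. Luciferin detected by luminescence, normalized to 57 uM ketoconazole as full inhibition.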
# Tags tell the direction and shape of the fitted curve.
smiles,measurement,setting,value
COc1ccccc1NC(=O)CSc1nc(-c2ccc(C(C)(C)C)cc2)c(C#N)c(=O)[nH]1,Potency,[1],"inconclusive: 30.1 µM [inhibitor, single point]"
same,Potency,[2],active: 67.5 µM
same,outcome,[3],inactive [at 12.7 µM]
COc1cc(C(c2c(C)[nH][nH]c2=O)c2c(C)[nH][nH]c2=O)ccc1OC(=O)c1ccccc1OC,Potency,[1],inactive
same,Potency,[4],active: 8.49 µM
COc1cc(Cl)c(C)cc1NC(=O)CSc1ncc(S(=O)(=O)c2ccc(C(C)(C)C)cc2)c(=O)[nH]1,Potency,[5],active: 21.2 µM
same,Potency,[1],"inconclusive: 26.8 µM [inhibitor, single point]"
same,Potency,[4],active: 0.425 µM
Cc1nc2c3ccccc3nc(NNC(=O)CCC(=O)N3CCN(c4ccccc4)CC3)n2n1,Potency,[1],inactive
same,Potency,[4],"inconclusive: 21.3 µM [inhibitor, single point]"
C[C@H](CCC(=O)O)[C@H]1CC[C@H]2[C@@H]3[C@@H](O)C[C@@H]4C[C@H](O)CC[C@]4(C)[C@H]3CC[C@]12C,Potency,[1],inactive
same,Potency,[6],inactive
Cc1[nH]n2c(=O)cc(-c3ccc(Cl)cc3)nc2c1-c1ccccc1,Potency,[1],inactive
same,Potency,[4],"inconclusive: 19 µM [inhibitor, partial curve]"
Nc1nc(N)c(S(=O)(=O)c2ccccc2)c(Nc2ccc(Br)cc2)n1,Potency,[1],"inconclusive: 21.3 µM [inhibitor, single point]"
same,Potency,[4],active: 4.77 µM
O=C(CSc1nc(-c2ccc(F)cc2)nc2c1Cc1ccccc1O2)Nc1cccc(C(=O)O)c1,Potency,[5],active: 9.47 µM and active: 3.36 µM
same,Potency,[1],inactive
same,Potency,[4],"inconclusive: 10.7 µM [inhibitor, partial curve, poor fit]"
same,Potency,[2],active: 6.01 µM and active: 151 nM
same,Potency,[3],"inconclusive: 3.79 µM [inhibitor, full curve]"
same,Potency,[7],"inconclusive: 5.01 µM [activator, full curve, poor fit] and inconclusive: 12.6 µM [activator, partial curve, poor fit]"
CCC(O)c1ccccc1 (stereo unspecified),Potency,[1],inactive
same,Potency,[4],inactive
same,Potency,ATS95,inactive
same,Potency,CP217,inactive
same,Potency,CP266,"inconclusive: 19 µM [inhibitor, single point]"
same,Potency,CP335,"inconclusive: 4.26 µM [inhibitor, single point]"
same,Potency,Dd2,inactive
same,Potency,FAB9,inactive
same,Potency,GB4,inactive
O=C1c2ccccc2C(=O)c2c(O)c(O)cc(O)c21,Potency,[8],active: 25.1 µM
same,Potency,[9],active: 75.2 µM
same,Potency,[1],"inconclusive: 26.8 µM [inhibitor, single point]"
same,Potency,[4],"inconclusive: 12 µM [inhibitor, partial curve]"
OCC=Cc1ccccc1,Potency,[1],inactive
same,Potency,[4],active: 19 µM
Cc1cc(C)cc(NC(=O)CSc2c(C(C)C)cnc3c2c(=O)n(C)c(=O)n3C)c1,Potency,[1],"inconclusive: 5.35 µM [inhibitor, full curve]"
same,Potency,[4],"inconclusive: 37.9 µM [inhibitor, single point]"
COc1ccc(NS(=O)(=O)c2sc3ccc(Cl)cc3c2C)cc1N1CCNCC1,Potency,[1],active: 23.9 µM
same,Potency,[4],"inconclusive: 10.7 µM [inhibitor, partial curve]"
same,Potency,[6],active: 20.5 µM
same,Potency,[10],"inconclusive: 2.99 µM [inhibitor, partial curve, poor fit]"
On1ncc(C2CCNCC2)c1-c1cccc(-c2ccccc2)c1,Potency,[1],"inconclusive: 21.3 µM [inhibitor, partial curve, poor fit]"
same,Potency,[6],"inconclusive: 25.8 µM [inhibitor, partial curve, poor fit]"
same,Potency,[10],inactive
same,Potency,[11],inactive
NC(Cc1ccc(O)c(O)c1)C(=O)O (stereo unspecified),Potency,[12],inactive
same,Potency,[1],inactive
same,Potency,[2],active: 1.4 µM
same,Potency,[3],active: 44.1 µM
Cc1cc(-n2c(SCc3ccccc3F)nc3[nH]ncc3c2=O)ccc1Cl,Potency,[1],active: 19 µM
same,Potency,[4],active: 23.9 µM
CCN1CCN(CCCNC(=O)c2cc3c(s2)-c2c(C)cccc2OC3)CC1,Potency,[1],active: 10.7 µM
same,Potency,[4],inactive
NCCOCCOCCOCCOCCN1CCN(C(c2ccc(Cl)cc2)c2ccc(Cl)cc2)CC1,Potency,[1],active: 6.74 µM
same,Potency,[4],"inconclusive: 21.3 µM [inhibitor, partial curve]"
CCOC(=O)c1csc(-n2nc(-c3ccc(F)c(F)c3)c(Cc3ccc(S(N)(=O)=O)cc3)c2N)n1,Potency,[1],inactive
same,Potency,[4],"inconclusive: 4.25 µM [inhibitor, full curve]"
CC(C)c1ccc(-n2ncc3c(=O)n(CC(=O)Nc4cc(F)ccc4Cl)cnc32)cc1,Potency,[1],inactive
same,Potency,[4],active: 3.79 µM
